pIC50: −log10 of the molar value. A lower IC50 marks a more sensitive line; a limit (>, <) means that the fit lies beyond the doses tested. For AUC the same curve is integrated over the 256-fold range of doses and scaled to a fraction; it is 1 without any effect and falls as sensitivity rises. For part of these data: Where the top dose is marked as inferred, it comes from the curve model; the source does not state it. For part of these data: An entry number marks a drug with two screens in the source, which often give different values.
Columns and labels:
Test in all cases: Viability of human cancer cell lines after 72 h of drug (GDSC screen)
[1] = compound: O=c1cc(-c2cccc3c2Sc2ccccc2S3)oc(N2CCOCC2)c1 [KU-55933]; conditions: top dose 10 µM
Procedure: (§1)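 Human cancer cell lines in 384-well plates, medium with 10% serum, drug for 72 h over a 256-fold dose range (nine 2-fold or five 4-fold steps up to the top dose). Adherent lines were fixed and stained with the nucleic acid dye Syto60, suspension lines read with resazurin; signal relative to control wells, capped at 0 and 100%. One two-parameter sigmoid per drug and line, fitted in a mixed model over all curves with the slope shared within a line.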

[2] = compound: COc1cc2ncnc(-n3nc(-c4ccccn4)nc3N)c2cc1OC [CP466722]; conditions: top dose 16 µM; top dose inferred
Procedure: as §1

[3] = compound: Cc1ccc(-c2c(C(=O)CCl)n(CCCO)c3ncnc(N)c23)cc1 [CMK]; conditions: top dose 4 µM; top dose inferred
Procedure: as §1

[4] = compound: Cc1cnc(-c2cnc(NCCNc3ccc(C#N)cn3)nc2-c2ccc(Cl)cc2Cl)[nH]1 [CHIR-99021]
Procedure: as §1

[5] = compound: C=CC(=O)Nc1cc(-n2c(=O)ccc3cnc4ccc(-c5cn[nH]c5)cc4c32)ccc1C [QL-X-138]; conditions: top dose 10.24 µM; top dose inferred
Procedure: as §1

[6] = compound: C/C=C(/C)C(=O)O[C@H]1C(C)=C2[C@H]([C@@H]1OC(=O)CCCCCCC)[C@@](C)(OC(C)=O)C[C@H](OC(=O)CCC)[C@@]1(O)[C@H]2OC(=O)[C@@]1(C)O [Thapsigargin]; conditions: top dose 0.512 µM; top dose inferred
Procedure: as §1

[7] = compound: COc1cc(O)c2c(c1)/C=C/C[C@H](O)[C@H](O)C(=O)/C=C\C[C@H](C)OC2=O [(5Z)-7-Oxozeaenol]; conditions: top dose 10 µM; top dose inferred
Procedure: as §1

[8] = compound: Cc1ccc(F)c(NC(=O)Nc2ccc(-c3cccc4[nH]nc(N)c34)cc2)c1 [ABT-869]; conditions: top dose 1.024 µM; top dose inferred
Procedure: as §1

[9] = compound: C[C@]1(c2nc3c(C(N)=O)cccc3[nH]2)CCCN1 [ABT-888]; conditions: top dose 5 µM; top dose inferred
Procedure: as §1

[10] = compound: COc1nc(C)cnc1NS(=O)(=O)c1cccnc1-c1ccc(-c2nnco2)cc1 [Zibotentan]; conditions: top dose 20 µM; top dose inferred
Procedure: as §1

[11] = compound: CCn1c(-c2nonc2N)nc2cnc(Oc3cccc(NC(=O)c4ccc(OCCN5CCOCC5)cc4)c3)cc21 [GSK269962A]; conditions: top dose inferred
Procedure: as §1

[12] = compound: COc1cc(N2CCC(O)CC2)ccc1Nc1cc(Nc2ccccc2S(=O)(=O)C(C)C)c2cc[nH]c2n1 [MPS-1-IN-1]; conditions: top dose 20 µM; top dose inferred
Procedure: as §1

[13] = compound: Nc1ccn([C@@H]2O[C@H](CO)[C@@H](O)[C@@H]2O)c(=O)n1 [Cytarabine]; conditions: top dose 2 µM
Procedure: as §1

[14] = top dose 2.56 µM, screen: GDSC drug entry 154
[15] = top dose 10 µM, screen: GDSC drug entry 1241, top dose inferred
[16] = top dose 2.5 µM, screen: GDSC drug entry 127
[17] = top dose 5 µM, screen: GDSC drug entry 1192

Row | Cell Line | AUC [1] | pIC50 [1] | AUC [2] | pIC50 [2] | AUC [3] | pIC50 [3] | AUC [4, 14] | pIC50 [4, 14] | AUC [4, 15] | pIC50 [4, 15] | AUC [5] | pIC50 [5] | AUC [6] | pIC50 [6] | AUC [7] | pIC50 [7] | AUC [8] | pIC50 [8] | AUC [9] | pIC50 [9] | AUC [10] | pIC50 [10] | AUC [11, 16] | pIC50 [11, 16] | AUC [11, 17] | pIC50 [11, 17] | AUC [12] | pIC50 [12] | AUC [13] | pIC50 [13]
1 | NCI-H446 (small cell lung carcinoma, semi-adherent) | 0.985 | < 5.00 | 0.716 | 5.37 | 0.9 | < 5.40 | 0.985 | < 5.59 | 0.984 | < 5.00 | 0.424 | 6.41 | 0.538 | 7.39 | 0.775 | 5.37 | 0.985 | < 5.99 | 0.986 | < 5.30 | 0.985 | < 4.70 | 0.883 | < 5.60 | 0.846 | 5.39 | 0.882 | < 4.70 | 0.893 | < 5.70
2 | NCI-H524 (small cell lung carcinoma, suspension) | 0.965 | < 5.00 | 0.75 | 5.32 | 0.952 | < 5.40 | 0.989 | < 5.59 | 0.989 | < 5.00 | 0.659 | 5.77 | 0.533 | 7.41 | 0.748 | 5.53 | 0.987 | < 5.99 | 0.988 | < 5.30 | 0.989 | < 4.70 | 0.882 | 5.67 | 0.698 | 5.98 | 0.988 | < 4.70 | 0.985 | < 5.70
3 | NCI-H720 (lung carcinoid, suspension) | 0.987 | < 5.00 | 0.991 | < 4.80 | 0.926 | < 5.40 | 0.991 | < 5.59 | 0.991 | < 5.00 | 0.992 | < 4.99 | 0.991 | < 6.29 | 0.832 | 5.25 | 0.992 | < 5.99 | 0.992 | < 5.30 | 0.992 | < 4.70 | 0.833 | 5.84 | 0.938 | < 5.30 | 0.992 | < 4.70 | 0.981 | < 5.70
4 | NCI-H747 (large intestine, adherent) | 0.978 | < 5.00 | 0.72 | 5.31 | 0.818 | 5.54 | 0.954 | < 5.59 | 0.92 | < 5.00 | 0.543 | 6.07 | 0.594 | 7.21 | 0.44 | 6.39 | 0.937 | < 5.99 | 0.98 | < 5.30 | 0.978 | < 4.70 | 0.976 | < 5.60 | 0.941 | < 5.30 | 0.83 | 4.78 | 0.838 | 5.74
5 | NCI-H847 (small cell lung carcinoma, adherent) | 0.975 | < 5.00 | 0.828 | 5.13 | 0.898 | 5.48 | 0.993 | < 5.59 | 0.897 | 5.09 | 0.449 | 6.32 | 0.084 | > 8.70 | 0.808 | 5.40 | 0.963 | < 5.99 | 0.993 | < 5.30 | 0.992 | < 4.70 | 0.879 | 5.76 | 0.618 | 6.21 | 0.78 | 5.18 | 0.993 | < 5.70
6 | NCI-H1092 (small cell lung carcinoma, suspension) | 0.99 | < 5.00 | 0.89 | < 4.80 | 0.972 | < 5.40 | 0.99 | < 5.59 | 0.989 | < 5.00 | 0.748 | 5.48 | 0.861 | 6.36 | 0.942 | < 5.00 | 0.983 | < 5.99 | 0.987 | < 5.30 | 0.984 | < 4.70 | 0.962 | < 5.60 | 0.987 | < 5.30 | 0.974 | < 4.70 | 0.99 | < 5.70
7 | NCI-H1304 (small cell lung carcinoma, suspension) | 0.959 | < 5.00 | 0.736 | 5.30 | 0.982 | < 5.40 | 0.984 | < 5.59 | 0.944 | < 5.00 | 0.833 | 5.13 | 0.611 | 7.18 | 0.837 | 5.13 | 0.987 | < 5.99 | 0.987 | < 5.30 | 0.987 | < 4.70 | 0.919 | < 5.60 | 0.937 | < 5.30 | 0.988 | < 4.70 | 0.972 | < 5.70
8 | NCI-H1395 (lung adenocarcinoma, adherent) | 0.935 | < 5.00 | 0.898 | < 4.80 | 0.958 | < 5.40 | 0.982 | < 5.59 | 0.939 | < 5.00 | 0.915 | < 4.99 | 0.673 | 6.94 | 0.9 | < 5.00 | 0.981 | < 5.99 | 0.977 | < 5.30 | 0.981 | < 4.70 | 0.952 | < 5.60 | 0.854 | < 5.30 | 0.978 | < 4.70 | 0.848 | < 5.70
9 | NCI-H1417 (small cell lung carcinoma, suspension) | 0.946 | < 5.00 | 0.892 | < 4.80 | 0.931 | < 5.40 | 0.969 | < 5.59 | 0.974 | < 5.00 | 0.973 | < 4.99 | 0.847 | 6.31 | 0.509 | 6.18 | 0.887 | < 5.99 | 0.981 | < 5.30 | 0.975 | < 4.70 | 0.818 | 5.75 | 0.745 | 5.74 | 0.908 | < 4.70 | 0.386 | 7.24
10 | NCI-H1436 (small cell lung carcinoma, suspension) | 0.977 | < 5.00 | 0.896 | < 4.80 | 0.986 | < 5.40 | 0.985 | < 5.59 | 0.936 | < 5.00 | 0.771 | 5.35 | 0.939 | < 6.29 | 0.774 | 5.35 | 0.983 | < 5.99 | 0.969 | < 5.30 | 0.984 | < 4.70 | 0.803 | 5.84 | 0.754 | 5.72 | 0.933 | < 4.70 | 0.983 | < 5.70
11 | NCI-H1648 (lung adenocarcinoma, adherent) | 0.897 | < 5.00 | 0.707 | 5.40 | 0.922 | < 5.40 | 0.961 | < 5.59 | 0.818 | 5.21 | 0.734 | 5.51 | 0.171 | 8.53 | 0.843 | 5.11 | 0.983 | < 5.99 | 0.984 | < 5.30 | 0.972 | < 4.70 | 0.983 | < 5.60 | 0.984 | < 5.30 | 0.843 | 4.81 | 0.927 | < 5.70
12 | NCI-H1694 (small cell lung carcinoma, suspension) | 0.987 | < 5.00 | 0.827 | 5.01 | 0.875 | 5.41 | 0.989 | < 5.59 | 0.975 | < 5.00 | 0.771 | 5.41 | 0.665 | 7.04 | 0.707 | 5.62 | 0.986 | < 5.99 | 0.989 | < 5.30 | 0.988 | < 4.70 | 0.972 | < 5.60 | 0.89 | < 5.30 | 0.937 | < 4.70 | 0.967 | < 5.70
13 | NCI-H1770 (non-small cell lung carcinoma, suspension) | 0.992 | < 5.00 | 0.908 | < 4.80 | 0.942 | < 5.40 | 0.972 | < 5.59 | 0.989 | < 5.00 | 0.958 | < 4.99 | 0.294 | 8.04 | 0.89 | 5.04 | 0.992 | < 5.99 | 0.992 | < 5.30 | 0.989 | < 4.70 | 0.986 | < 5.60 | 0.93 | < 5.30 | 0.888 | 4.75 | 0.992 | < 5.70
14 | NCI-H1836 (small cell lung carcinoma, suspension) | 0.988 | < 5.00 | 0.901 | < 4.80 | 0.975 | < 5.40 | 0.988 | < 5.59 | 0.986 | < 5.00 | 0.852 | 5.04 | 0.855 | 6.32 | 0.874 | < 5.00 | 0.988 | < 5.99 | 0.985 | < 5.30 | 0.988 | < 4.70 | 0.963 | < 5.60 | 0.936 | < 5.30 | 0.984 | < 4.70 | 0.988 | < 5.70
15 | NCI-H1838 (lung adenocarcinoma, adherent) | 0.834 | 5.07 | 0.93 | < 4.80 | 0.982 | < 5.40 | 0.986 | < 5.59 | 0.934 | < 5.00 | 0.946 | < 4.99 | 0.971 | < 6.29 | 0.897 | < 5.00 | 0.987 | < 5.99 | 0.973 | < 5.30 | 0.986 | < 4.70 | 0.986 | < 5.60 | 0.927 | < 5.30 | 0.955 | < 4.70 | 0.956 | < 5.70
16 | NCI-H1869 (lung squamous cell carcinoma, adherent) | 0.857 | 5.01 | 0.791 | 5.08 | 0.972 | < 5.40 | 0.968 | < 5.59 | 0.934 | < 5.00 | 0.839 | 5.08 | 0.531 | 7.41 | 0.418 | 6.44 | 0.98 | < 5.99 | 0.983 | < 5.30 | 0.985 | < 4.70 | 0.958 | < 5.60 | 0.809 | 5.52 | 0.979 | < 4.70 | 0.882 | < 5.70
